Source: the RNAGym collection of RNA variant scans (doi:10.1093/nar/gkz1192)
Read counts are not given, so values of variants with three or more changes are uncertain.

B1: CPEB3 Ribozyme (parent)
chain: UAACAGGGGGCCACAGCAGAAGCGUUCACGUCGCAGCCCCUGUCAGAUUCUGGUGAAUCUGCGAAUUCUGCUGUAUAUCUC

Variants of: B1
Assay: self-cleavage, relative activity (ratio to wild type); higher = more cleavage; in vitro, sequencing
Method in brief: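 Barcoded CPEB3 ribozyme mutants, produced by rounds of error-prone PCR, self-cleaved while being transcribed with T7 RNA polymerase for 5 hours at 37°C and during a subsequent 15 min DNase I step before EDTA was added. Sequencing of template-switched cDNA on Illumina gave cleaved and total reads, and DNA sequencing assigned barcodes to variants. Each variant's relative activity is its cleaved/total read fraction divided by the unmutated ribozyme's fraction, averaged across three batches. A variant needed a minimum of 5 reads.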

Variant | self-cleavage
A5U C12U A15G A45U | 0.29
A5U C12U A15G U41C | 0.55
A5U C12U A20U U25C C32U A64G | 0.2
A5U C12U C17U A47G U54A | 0.66
A5U C12U G22U A75G | 0.33
A5U C12U G30A A47G A77U | 0.12
A5U C12U U41C U66C | 0.74
A5U C12U U49A A57G U60A G63U A75G | 0.42
A5U C12U U51C | 1.18
A5U C14A C29G U41C A57G U58C | 0.1
A5U C14A U31C U58C U67C U69C | 0.11
A5U C14A U74A | 1.02
A5U C14U A15U G24A G53A U72C | 0.41
A5U C14U A20G A64G | 1.06
A5U C14U A28G A64G | 0.92
A5U C14U C38U | 0.82
A5U C17A U54C U76C U80C | 0.19
A5U C17G U43C A64U | 0.13
A5U C17U A20U A45U | 0.32
A5U C17U G42A C50U | 0.04
A5U C17U U25C U49C G52U A57U U74C | 0.08

Variant | self-cleavage
A5U C17U U41A U60A U76C C79U | 0.09
A5U C17U U41C G46U C71A | 0.06
A5U C17U U49C A57G A75U | 0.24
A5U C17U U74A U76C | 1.21
A5U C23A A28G U54C U80C | 0.1
A5U C23A U31A U54A A57G U58A U72C | 0.06
A5U C23G A28G A56G G63C U80C | 0.13
A5U C23G C27A A35U A75U A77U | 0.07
A5U C23G U69C U78C | 0.1
A5U C23U A28G A56G U69C U72A U80A | 0.09
A5U C23U A35U U54A A56G U67C U72C | 0.1
A5U C23U A75U | 0.42
A5U C27A A47U U49C | 0.08
A5U C27A G33A C71G U78C | 0.09
A5U C27G A75G | 0.29
A5U C27U A28G C32U U60C | 0.17
A5U C27U A47U A57G | 0.11
A5U C27U U41A U43C U78C | 0.21
A5U C29A A65G U80A | 0.42
A5U C29A C32U | 0.28
A5U C29A G70A | 0.07

Variant | self-cleavage
A5U C29A U49C U69A U72C | 0.19
A5U C29U A35C | 0.28
A5U C29U A35U A47U U54G | 0.07
A5U C29U C79G | 0.85
A5U C29U U43C | 0.15
A5U C32U C40A U67C U80A | 0.08
A5U C32U G36C U60C U72C | 0.07
A5U C32U U58C U66C | 0.16
A5U C34A A45G U48C U54A | 0.11
A5U C34U A35G | 0.46
A5U C34U A35G U67C | 0.13
A5U C34U C38A G46A | 0.1
A5U C37A G73A | 0.63
A5U C37U U80C | 0.51
A5U C38A A47G U54C U60A U76C | 0.07
A5U C38A C44U | 0.26
A5U C38U A57G U72C | 0.62
A5U C38U C44U U49C | 0.12
A5U C38U U72C | 1.16
A5U C39A A45U C68A | 0.11
A5U C39A U74C | 0.66

Variant | self-cleavage
A5U C39U A56G G70U U72C | 0.12
A5U C39U A64G A75U U78C | 0.27
A5U C39U U69C U72A | 0.25
A5U C40A A47G U60C | 0.19
A5U C40A U41C U51C | 0.18
A5U C40G U41C U54A | 0.31
A5U C40U A45G U51A A57G U74A A75G | 0.29
A5U C40U A64G | 0.52
A5U C40U U43A U58C U69C U74C | 0.2
A5U C40U U43C U51C A56G A64U C79A | 0.12
A5U C44A A64G | 0.41
A5U C44U U60A U69C U74C | 0.12
A5U C50A U54C | 0.86
A5U C50U A56G U67C U80C | 0.2
A5U C59U A64U | 0.15
A5U G6A A13U U43A U80A | 0.64
A5U G6A A15G U43A U69A U80A | 0.27
A5U G6A A28G C29G U31A U54A | 0.38
A5U G6A C23U U26C | 0.06
A5U G6A C34U U43A A45G U80A | 0.1
